Laboratory results taken from PubChem BioAssay AID493208 (National Center for Advancing Translational Sciences (NCATS), 2011).
The whole screen tested about 44,000 compounds, of which about 340 (0.77%) were called active. About 5% were inconclusive and are not listed. The call rests on the fitted dose curve; in most records, active means well fitted inhibition curve with a large enough effect; inconclusive means small, poorly fitted or top-dose-only effect; inactive means flat fitted curve, though single readings scatter. Some of the results follow.

Assay: Acumen qHTS Assay for Inhibitors of the mTORC1 Signaling Pathway in MEF (Tsc2-/-, p53-/-) Cells: Sytravon;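 further: plate controls were DMSO for no effect and rapamycin for full effect; nearly all actives have a fitted effect of over 50% in size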
Settings: phospho-rpS6 immunofluorescence/PI, 24 h; series mostly up to 38.3 µM; activity change, negative = inhibition: at the top concentration
Method in brief: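 Tsc2-/-, p53-/- MEFs (empty-vector stable line) in DMEM + 10% FBS were treated with compounds 24 h at 37 degree Celsius, fixed, and immunostained for phospho-rpS6 (Alexa-488) with propidium iodide counterstain. Laser-scanning cytometry gave % positive cells, normalized against 7.5 nM rapamycin and DMSO.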

Activity change, negative = inhibition, inactive:
CCCN1CCN(CCCNC(=O)c2ccc3c(c2)sc2nc(-c4ccc(C)cc4)cn23)CC1 4.57%, Cc1cccc(NCc2nnc3n2CCCCC3)c1C 1.77%, CN(C(=O)c1ccc2c(c1)N(Cc1ccccc1F)C(=O)c1ccccc1S2)C1CCCCC1 -0.433%, CCOC(=O)c1c(C)n(-c2ccccc2)c2ccc(OC(=O)c3ccc(OCC)c(OCC)c3)cc12 -3.38%, Cc1cccc(-c2noc(-c3ccc(NCC4CCCO4)c([N+](=O)[O-])c3)n2)c1 (stereo not drawn) -5.34%, Cc1ccc(-c2nnc(Nc3ccc(Cl)cc3)c3ccccc23)cc1S(=O)(=O)N1CCOCC1 21.9%, CN(C)S(=O)(=O)c1ccc2c(c1)N(CC(=O)N1CCCCC1)CCS2 -0.68%, Cn1cc(S(=O)(=O)c2ccccc2)c(=O)c2cc(F)c(N3CCN(c4ccc(F)cc4)CC3)cc21 -14.7%, O=C(Nc1c(C(=O)N2CCC(N3CCCCC3)CC2)oc2ccccc12)c1c(F)cccc1F -4.06%, COc1ccc(CNC(=O)CCc2nc3cccnc3n2Cc2ccccc2)cc1 -9.77%, Cc1ccc(Cl)cc1N1CCN(C(=O)c2cn(C)c3ccc(S(=O)(=O)N(C)C4CCCCC4)cc3c2=O)CC1 -4.31%, Cc1ccc(NC(=O)Cn2c(=O)n(CCC(=O)NCCc3ccccc3)c(=O)c3ccccc32)cc1 4.79%, O=C(Cn1cnc(S(=O)(=O)N2CCCC2)c1)Nc1ccccc1 1.8%, CC(=O)Nc1ccc(NC(=O)C(Cc2ccccc2)N2Cc3ccccc3C2=O)cc1 (stereo not drawn) 7.39%, Cc1cccc(N2CCN(C(=O)c3c(C)oc4nc(C)nc(N5CCCC5)c34)CC2C)c1 (stereo not drawn) 7.32%, Cc1ccc(-n2ncc3c(Nc4cccc(C)c4)ncnc32)cc1 -5.47%, COc1cccc(-n2c(SCC(=O)N3CCCCC3)nc3c([nH]c4ccccc43)c2=O)c1 -11.4%, Cc1ccc(C)c(CN2C(=O)c3ccccc3Sc3ccc(C(=O)NCc4cccs4)cc32)c1 7.2%, CC1CCC(N2CC(=O)N(C3CCCC3)C(c3ccc(Cl)cc3)C2=O)CC1 (stereo not drawn) 13.5%, CC(=O)c1cccc(NC(=O)c2noc3c2CSc2ccccc2-3)c1 -2.08%, COc1ccc(NC(=O)c2c(N)c(C(=O)c3ccc(C)cc3)n3ccccc23)cc1OC -2.67%, Cc1cc(C)c2c(-n3cccc3)c(C(=O)NCCCN3CCCCC3)sc2n1 0.126%, CCN1CCN(Cc2nc3cc(NC(=O)c4ccccc4[N+](=O)[O-])ccc3n2CC)CC1 -7.73%, Cc1ccc(C)c(NC(=O)C2CCN(c3nn4c(=O)cc(C)nc4s3)CC2)c1 0.527%, O=C(CCc1ccccc1)NCCc1csc(-c2cccc(F)c2)n1 -6.91%, Cc1ccccc1OCCSc1nc(C)c(Cc2ccccc2)c(=O)[nH]1 3.69%, COc1ccc(-c2nn(C)c3sc(C(=O)N4CCN(c5ccccc5F)CC4)cc23)cc1OC -0.184%, COc1cccc(CNC(=O)C(C)n2ccc3cc(S(=O)(=O)N4CCCCCC4)ccc32)c1 (stereo not drawn) -2.27%, COc1ccccc1-c1cc(NC(=O)COc2ccccc2Cl)n(-c2ccccc2)n1 4.6%, Cc1ccc(-c2[nH]c3ccccc3c2SCCNC(=O)c2ccc(S(=O)(=O)N3CCOCC3)cc2)cc1 1.1%, COc1cccc(CNC(=O)CN2C(=O)CSc3ccc(S(=O)(=O)N(C)C)cc32)c1 0%, Cc1ccc(-c2nc3sccn3c2Nc2ccccc2C)cc1 -3.11%, CC1CCN(C(=O)c2cnn(-c3ccc(Cl)cc3)c2C2CCN(C(=O)OC(C)(C)C)CC2)CC1 4.3%, Cc1c(C(=O)OC2CCCC2)[nH]c2c1C(=O)CC(c1ccc(C(C)(C)C)cc1)C2 (stereo not drawn) 1.92%, Cc1cc2c(cc3c(SCc4ccc(Cl)cc4)nnc(C)n32)o1 -18.2%, COc1ccc(NC(=O)CSc2oc(-c3ccc(C)cc3)nc2S(=O)(=O)c2ccc(C)cc2)c(OC)c1 -9.16%, CCC(=O)Oc1c(Sc2ccc(Cl)cc2)c(C)nn1C(C)(C)C 7.21%, CCN(CCCNC(=O)c1cc2cc3cc(OC)ccc3nc2s1)c1cccc(C)c1 -1.7%, Cc1cccc(N2CCN(C(=O)c3nn(C)c4c3CSc3ccccc3-4)CC2C)c1 (stereo not drawn) -9.02%, CCc1cccc(NC(=O)CNS(=O)(=O)c2ccc3nc(C)sc3c2)c1 -9.47%, COc1ccc2c(c1)c1c(c(=O)n(-c3cccc(C)c3)c(=O)n1CC(=O)Nc1c(C)cc(C)cc1C)n2C -1.67%, Cc1cc(C)cc(NC(=O)CN2C(=O)COc3ccc(S(=O)(=O)Nc4ccccc4)cc32)c1 2.2%, Cc1cn(C)c(CC(=O)NCc2ccc(F)cc2)c1C(=O)O -5.63%, CCOC(=O)c1ccccc1NC(=O)CSc1nc2ncccc2o1 2.52%, CCN1CCN(Cc2c(O)ccc3oc(C)c(C(=O)Nc4ccc(OC)c(Cl)c4)c23)CC1 -12.2%, CC1=C(c2ccc(C)cc2)S(=O)(=O)N=C1N1CCN(c2ccccc2)CC1 -0.417%, CCC(C)NC(=O)c1cn(CC)c2ccc(S(=O)(=O)N3CCCCC3)cc2c1=O (stereo not drawn) -5.46%, Cc1ccc(CSC2=Nc3ccccc3C3=NC(CC(=O)NC4CCCCC4)C(=O)N23)c(C)c1 (stereo not drawn) 0.833%, Cc1ccc(NS(=O)(=O)c2ccc3c4c(cccc24)C(=O)N3)c(C)c1 2.29%, CCn1cc(C(=O)NCc2ccccc2)c(=O)c2cc(S(=O)(=O)N3CCCCC3)ccc21 -7.26%, Cc1cc(Nc2cccc(C(F)(F)F)c2)ncn1 0.068%, CN(Cc1ccccc1)S(=O)(=O)c1ccc(F)c(C(=O)Nc2ccccc2C(F)(F)F)c1 2.37%, Cc1ccc(C(NC(=O)Cc2cccs2)C(=O)Nc2ccc(C(C)C)cc2)cc1 (stereo not drawn) -20.1%, Cc1cccc(-c2nc3c4ccccc4nc(NCc4ccccc4Cl)n3n2)c1 -5.57%, O=C(Nc1ccc(N2CCC(N3CCCCC3)CC2)c(C(=O)O)c1)c1ccccc1 0.566%, O=C(COc1ccccc1)N(Cc1cccnc1)c1nc2ccc(Cl)cc2s1 -6.71%, CNS(=O)(=O)c1cn(CC(=O)N2CCN(c3ccc(OC)cc3)CC2)cc1S(=O)(=O)NC -2.35%, COc1ccc(CC(=O)NC2CC(=O)N(c3ccc4c(c3)OCCO4)C2)cc1 (stereo not drawn) -1.75%, CC(C)NC(=O)c1ccc(Cn2c(=O)c3cccn3c3cccnc32)cc1 0.835%, Nc1c(C(=O)Nc2cccc(Cl)c2)sc2nc3c(cc12)CN(Cc1ccccc1)CC3 -13.5%, CCOCCCn1c(=N)c(S(=O)(=O)c2ccc(C)cc2)cc2c(=O)n3ccccc3nc21 1.63%, CCOC(=O)c1c(NC(=O)C(C)Sc2cn(CCNC(=O)c3ccc(OC)c(OC)c3)c3ccccc23)sc2c1CCC2 (stereo not drawn) 4.03%, COc1ccc2nc3sc(C(=O)Nc4cc(Cl)c(OC)cc4OC)cc3cc2c1 4.22%, Cc1c(NC(=O)c2cc(-c3cccc(Cl)c3)on2)c(=O)n(-c2ccccc2)n1C -14.6%, O=C(CSc1nncn2c1cc1sccc12)Nc1ccccc1C(F)(F)F 0%, O=C(NCCC1=CCCCC1)c1ccc2c(c1)N(Cc1ccc(F)cc1)C(=O)c1ccccc1S2(=O)=O 1.55%, CCOC(=O)c1c(C)oc2nc(C)nc(NCc3ccc(C)cc3)c12 -1.95%, CCN1CCN(Cc2c(O)ccc3c(=O)c(Oc4ccccc4Cl)c(C(F)(F)F)oc23)CC1 -1.58%, COCCCNc1nc2c(-c3ccccc3)nnn2c2ccccc12 -6.88%, CCOCCCn1c(=N)c(C(=O)NCc2ccco2)cc2c(=O)n3ccccc3nc21 -1.84%, COC(=O)c1ccccc1NC(=O)c1cc2nc(-c3ccccc3)cc(-c3ccccc3)n2n1 4.28%, Cc1cccc(N2CCN(S(=O)(=O)c3ccc4oc(=O)c5ncn(C)c5c4c3)CC2C)c1 (stereo not drawn) -1.06%, COc1ccc(N(C(=O)COc2c(C)cccc2C)S(=O)(=O)c2ccc(Cl)cc2)cc1 16%, Cc1ccccc1C(=O)NCC(c1cccnc1)N1CCc2ccccc21 (stereo not drawn) -3.17%, COc1ccc(NC(=O)C2(c3cccs3)CCOCC2)cc1Cl 3.86%, CCOC(=O)c1c(C)sc(-c2c(-c3ccc4c(c3)OCCO4)[nH]c3c2c(=O)[nH]c(=O)n3C)c1O -29.4%, COc1cccc(N2CCN(C(=O)c3c(C)oc4ncnc(N5CCCCC5)c34)CC2)c1 -26.7%, Cc1ccc(-c2nnc(Nc3ccc(O)cc3)c3ccccc23)cc1S(=O)(=O)NCc1nc2ccccc2[nH]1 -0.196%, COc1ccc(N2CC3=C(C2=O)C(c2ccc(Br)cc2)NC(=O)N3C)cc1 (stereo not drawn) 9.29%, Cc1cc(Nc2sc(C(=O)c3ccc(F)cc3)c(N)c2C(=O)Nc2ccc(F)cc2)ccc1Cl -11.2%, Cc1ccc(Cl)cc1N1CCN(CCCNc2ncnc3onc(-c4ccc(F)cc4)c23)CC1 -1.2%, O=C1CC(=O)Nc2cc(S(=O)(=O)N3CCOc4ccccc43)ccc2N1 -0.844%, CC(C)CN(CCCNC(=O)CN1C(=O)COc2ccc(S(=O)(=O)N3CCCCCC3)cc21)CC(C)C -21.3%, COc1cc(NC(=O)CSc2nc(C)c(C(=O)Nc3ccccc3)c(-c3ccc(OC)c(OC)c3)c2C#N)c(OC)cc1Cl -9.28%, Cc1cc(C)n(-c2nc3cc(Cl)ccc3nc2Nc2ccc(CC(=O)O)cc2)n1 0.874%, COc1ccc2nc(NC(=O)c3nc(SCc4ccccc4F)ncc3Cl)sc2c1 2.3%, COc1ccccc1CNC(=O)C1CCN(S(=O)(=O)c2ccc3c(ccn3C)c2)CC1 -4.61%, CCCCn1c(NCc2cc(Br)ccc2O)nc2ccccc21 1.97%, COC(=O)c1c(-c2cccs2)csc1NC(=O)c1ccc(OC)c(OC)c1 -10.9%, CCNC(=O)C1CCN(c2nnc(C)c3c(C)n(-c4ccc(OC)cc4)nc23)CC1 -3.15%, Cc1ccc2c(c1)NC(=O)c1cccnc1O2 -1.5%, Cc1ccc(-c2nc(CS(=O)(=O)CC(=O)NCCc3ccccc3)c(C)o2)cc1 1.18%, COc1ccc(S(=O)(=O)c2c(SC)nn(CC(=O)Nc3cccc(C)c3C)c2N)cc1 5.29%
